# Test results from PubChem BioAssay AID485294 (National Center for Advancing Translational Sciences (NCATS), 2010).
# The campaign covered roughly 370,000 compounds. About 150 (0.041%) were called active. The shares of active, inactive and inconclusive entries below differ from those in the screen. Calls come from the whole dose curve; as a rule, active = well fitted inhibition curve with a large enough effect; inconclusive = small, poorly fitted or top-dose-only effect; inactive = flat fitted curve, though single readings scatter. No potency is given beside an inconclusive call; the fits are too rough.
# Biological target: Beta-lactamase (Escherichia coli (strain K12)) (UniProt P00811)
# Assay: qHTS Inhibitors of AmpC Beta-Lactamase (assay with detergent); note: nearly all actives have a fitted effect of over 25% in size;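 for activity change, negative = inhibition: 0% = no-compound wells and -100% = no-enzyme wells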
# Conditions: AmpC hydrolysis of nitrocefin, absorbance 480 nm, 0.01% Triton; activity change, negative = inhibition: at 114 µM (top of the series)
# How it was run: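 AmpC (5.3 nM in the dispensed reagent) in 20 mM phosphate pH 7.0 with 0.01% (detergent screen) or 0.0001% Triton X-100 was preincubated with compounds for 15 min at room temperature. Nitrocefin was then added from an 800 uM solution, and hydrolysis was followed at 480 nm.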
# Potency is the fitted concentration of half-maximal effect; tags give direction and shape of the fitted curve.
# Chain of UniProt P00811 (P00811 whole entry, looked up): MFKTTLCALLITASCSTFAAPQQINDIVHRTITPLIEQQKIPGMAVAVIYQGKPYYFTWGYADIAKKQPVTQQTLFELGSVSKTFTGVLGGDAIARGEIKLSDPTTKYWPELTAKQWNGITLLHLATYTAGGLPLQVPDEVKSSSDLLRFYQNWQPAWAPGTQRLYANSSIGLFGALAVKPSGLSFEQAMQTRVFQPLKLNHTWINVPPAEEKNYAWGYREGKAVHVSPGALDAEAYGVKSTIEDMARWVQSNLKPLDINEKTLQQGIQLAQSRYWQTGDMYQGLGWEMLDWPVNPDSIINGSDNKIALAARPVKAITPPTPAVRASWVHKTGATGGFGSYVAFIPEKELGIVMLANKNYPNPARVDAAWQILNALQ
Compound,Potency,"activity change, negative = inhibition"
COC(=O)CSc1nc(NC(C)C)nc(N2CCOCC2)n1,"inconclusive [inhibitor, full curve, poor fit]",
COc1ccc(C(=O)NCCc2sc(-c3ccc(Cl)cc3)nc2C)c(OC)c1,,inactive: -0.0031%
COc1ccc(Cc2nc3ccccc3[nH]2)cc1OC,,inactive: 5.33%
Cn1ncc(Br)c1C(=O)NC12CC3CC(CC(C3)C1)C2,"inconclusive [inhibitor, single point]",
O=C1c2cc(F)ccc2-n2c1nc1ccccc1c2=O,,inactive: -3.78%
CCNS(=O)(=O)c1cccc(C(=O)c2c(C)cc3ccccn23)c1,"inconclusive [inhibitor, partial curve]",
OCCCc1nc2n(n1)C(c1ccccc1Cl)C=C(c1cccs1)N2 (stereo not drawn),,inactive: -12.1%
O=C(CO/N=C1\CCCc2nonc21)Nc1ccccc1Cl,"inconclusive [inhibitor, full curve]",
O=C(NCc1ccccc1)C1CC2CCCC(C1)C2=O (stereo not drawn),"inconclusive [inhibitor, full curve, poor fit]",
C=CCN1C(=O)c2ccc(C(=O)NCC(c3ccccc3)N(C)C)cc2C1=O (stereo not drawn),"inconclusive [inhibitor, single point]",
Nc1nccc(-c2cccs2)n1,"inconclusive [inhibitor, partial curve, poor fit]",
CC(C)(C)Nc1nc(Nc2ccc([N+](=O)[O-])cc2)nc(NC(C)(C)C)n1,"inconclusive [inhibitor, full curve, poor fit]",
Cc1ccc(-n2ncc3c(=O)n(CC(=O)NCc4ccco4)cnc32)cc1,"inconclusive [inhibitor, partial curve, poor fit]",
Cc1ccc(CSc2nc3c(c(=O)[nH]c(=O)n3C)n2CCC(C)C)cc1,"inconclusive [inhibitor, full curve, poor fit]",
COc1cc(/C=N/n2nnnc2N)ccc1OCc1c(C)no[n+]1[O-],,inactive: 0.876%
CCCCN1C[C@H](Cc2ccccc2)[C@@H](CC(=O)NCc2ccc(OC)cc2)C1=O,"inconclusive [inhibitor, full curve, poor fit]",
O=C(NCCOCc1ccc(Cl)cc1)c1ncn[nH]1,"inconclusive [inhibitor, single point]",
CCN(CC)CCNc1nc(-c2ccco2)c2c(c1C#N)CC(C)(C)OC2,,inactive: 0.232%
COc1ccc(NC(=O)COc2ccc(/C=C/c3cccc[n+]3C)cc2OC)cc1,,inactive: 4.92%
CCc1ccccc1NS(=O)(=O)c1ccc2c(c1)NC(=O)CC(=O)N2,,inactive: -1.43%
COc1cccc(C2CC(c3cccs3)=NN2C(=O)CSc2nc3ccccc3s2)c1OC (stereo not drawn),"inconclusive [inhibitor, full curve, poor fit]",
Cc1oc(-c2cccs2)nc1CSCC(=O)NC1CC1,"inconclusive [inhibitor, single point]",

Compound,Potency,"activity change, negative = inhibition"
CSC1=NSC2=NC(=O)/C(=C\c3ccc(OC(=O)c4ccco4)cc3)C(=N)N12,,inactive: 3.76%
Cc1ccc(-c2cc3nn(-c4ccccc4)c(N)c3c(=O)o2)cc1,"inconclusive [inhibitor, full curve, poor fit]",
COc1cccc(CNc2ccc(F)c(Cl)c2)c1OC,"inconclusive [inhibitor, full curve, poor fit]",
COc1cccc(CNC(=O)C2CCN(c3nnc(N4CCCC4=O)s3)CC2)c1,"inconclusive [inhibitor, partial curve]",
CC(C)C(NC(=O)c1ccccc1NC(=O)c1ccccc1)C(=O)NCCCn1ccnc1 (stereo not drawn),,inactive: -0.727%
CCCn1c(=O)c2[nH]c(-c3ccc(OCC(=O)Nc4ccc(C#N)cc4)cc3)nc2n(CCC)c1=O,"inconclusive [inhibitor, full curve, poor fit]",
COc1ccc(NC(=O)CSc2nc(-c3ccco3)cc(C(F)(F)F)n2)cc1,,inactive: -6.19%
Cc1cc(C)cc(NC(=O)CCC(=O)Nc2cc(C)on2)c1,"inconclusive [inhibitor, full curve]",
CC1CN(C(=O)CN2C(=O)NC3(CCCCCC3)C2=O)CC(C)O1 (stereo not drawn),"inconclusive [inhibitor, partial curve, poor fit]",
Cc1cccc(Oc2nc(-c3cccc([N+](=O)[O-])c3)nc3ccccc23)c1C,"inconclusive [inhibitor, full curve, poor fit]",
O=C(Oc1cccc(NC(=O)c2ccco2)c1)c1cccc(S(=O)(=O)N2CCCC2)c1,"inconclusive [inhibitor, single point]",
O=C(CCCc1nc(-c2ccccc2Cl)no1)NC1CCCC1,"inconclusive [inhibitor, full curve, poor fit]",
CCOc1ccc(OCCSc2nnnn2-c2ccccc2)cc1,,inactive: 0.624%
CCOc1ccc(OCCC(=O)OCC(=O)Nc2ccc3c(c2)OCCO3)cc1,"inconclusive [inhibitor, partial curve, poor fit]",
Cc1cc(NC(=O)CNC(=O)C2CCCCC2)no1,"inconclusive [inhibitor, full curve, poor fit]",
O=C(NCCc1ccccc1)/C(=C\c1ccc([N+](=O)[O-])cc1)NC(=O)c1ccc(Br)cc1,"inconclusive [inhibitor, full curve]",
COC(=O)Nc1ccc(S(=O)(=O)N2CCC(C(=O)N3CCC(C)CC3)CC2)cc1,"inconclusive [inhibitor, partial curve]",
Cc1nnc2c(Nc3cccc(O)c3)nc3ccccc3n12,,inactive: 8.53%
CC(C)(C)c1nnc(NC(=O)CS(=O)(=O)Cc2ccccc2)s1,"inconclusive [inhibitor, single point]",
N#CC1(c2ccc(NC(=O)c3ccccc3F)cc2)CCCC1,"inconclusive [inhibitor, full curve, poor fit]",
Nc1nccnc1C(=O)OCC(=O)C12CC3CC(CC(C3)C1)C2,"inconclusive [inhibitor, full curve, poor fit]",
